Values joined by “and” are separate entries in the source; they are usually repeats but may differ in a detail not shown here. Equal values may be shown once. The shares of active, inactive and inconclusive entries below differ from those in the screen. For some of these results: Potencies beside an inconclusive call are fits to weak or partial responses and may not hold up. Active and inactive are the calls of the source. Unless noted, calls follow the shape of the dose curve; as a rule, active = well fitted curve in the direction sought with a large enough effect; inconclusive = small, poorly fitted or top-dose-only effect, or another doubt; inactive = no such curve, though single readings can be large; an effect the other way counts as inactive or inconclusive.
What was measured:
[1] = qHTS of pediatric cancer cell lines to identify multiple opportunities for drug repurposing: Primary screen for BT-12 cells (AID 1347101); conditions: BT-12 viability, CellTiter-Glo luminescence, 48 h; series mostly up to 57.3 µM; also: nearly all actives have a fitted effect of over 25% in size; also: potency is read from the fitted curve at half-maximal effect
Procedure, shortened: (§1)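 Cells (500-1,000/well) rested 5 h, then received compounds for 48 h; metabolically active cells were measured by CellTiter-Glo luminescence. Final concentrations spanned up to 46 µM (MIPE, 11-point) or 0.59 nM-46 µM (NPC, 8-point) in primary screens, 11-point in follow-ups.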

[2] = qHTS of pediatric cancer cell lines to identify multiple opportunities for drug repurposing: Primary screen for OHS-50 cells (AID 1347103); conditions: OHS-50 osteosarcoma viability, CellTiter-Glo luminescence, 48 h; series mostly up to 57.3 µM; also: nearly all actives have a fitted effect of over 40% in size
Procedure, shortened: as §1

[3] = A High-Content qHTS Against Drug Library for the Identification of Small Molecules that Inhibit DYT1 Early Onset Primary Dystonia-Associated Cell Pathology (AID 1645839; calls by dose curve; also: potency is read from the fitted curve at half-maximal effect); conditions: HEK293 Flp-In EGFP-delE TorsinA, punctate imaging, 48 h; series mostly up to 46.1 µM
Procedure, shortened: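 Induced EGFP-delE TorsinA cells are imaged after 48 h of compound treatment. Punctate fusion-protein distribution gives the %pathology value, while nuclei counts flag toxicity. Wild-type EGFP-hTOR1A cells define the normal pattern.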

[4] = target: Cytochrome P450 2D6 (Homo sapiens) (UniProt P10635); assay: Cytochrome P450 family 2 subfamily D member 6 (CYP2D6) small molecule antagonists: luciferase biochemical (cell-free) qHTS assay (AID 1645840; active = well fitted curve in the direction sought with a large enough effect in the repeat runs; inconclusive = weak or mixed curves; inactive = no such curve, though single readings can be large; an effect the other way counts as inactive or inconclusive; also: nearly all actives have a fitted effect of over 55% in size; also: potency is read from the fitted curve at half-maximal effect); conditions: P450-Glo CYP2D6 enzyme, luciferin luminescence, 1 h; series mostly up to 57.4 µM
Sequence of UniProt P10635 (P10635 whole entry, looked up): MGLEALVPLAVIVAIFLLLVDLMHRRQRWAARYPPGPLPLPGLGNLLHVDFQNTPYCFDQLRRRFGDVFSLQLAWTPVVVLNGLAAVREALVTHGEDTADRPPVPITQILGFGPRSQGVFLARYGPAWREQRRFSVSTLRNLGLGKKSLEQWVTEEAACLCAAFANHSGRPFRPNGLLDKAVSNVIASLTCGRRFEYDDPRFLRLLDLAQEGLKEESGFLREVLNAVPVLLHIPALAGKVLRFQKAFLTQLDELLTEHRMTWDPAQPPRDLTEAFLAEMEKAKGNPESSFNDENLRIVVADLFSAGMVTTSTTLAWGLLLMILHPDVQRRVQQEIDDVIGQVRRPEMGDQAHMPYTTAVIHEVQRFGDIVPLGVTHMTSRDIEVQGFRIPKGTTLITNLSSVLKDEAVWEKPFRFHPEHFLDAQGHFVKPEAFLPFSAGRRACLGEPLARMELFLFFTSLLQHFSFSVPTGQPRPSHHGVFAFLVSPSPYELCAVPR
Procedure, shortened: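 P450-Glo CYP2D6 system: proluciferin substrate converted by enzyme to luciferin, read by luminescence proportional to activity. Enzyme-substrate mix with compound 10 min at room temperature, then NADPH regeneration 1 h before detection reagent.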

[5] = test system: MKL-1; assay: qHTS assay to identify novel small-molecules to repurpose for Merkel cell carcinoma treatment (AID 1296009); conditions: MCC and control cell lines, CellTiter-Glo viability, 72 h; activity change, negative = cytotoxicity: at 46 µM (top of the series); also: nearly all actives have a fitted effect of over 60% in size; also: potency is read from the fitted curve at half-maximal effect
Procedure, shortened: (§2)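 Viability readout: ATP luminescence (CellTiter-Glo) after 72 hr drug exposure at 37 degree celsius. Dose-response format was 8 points for NPC and 11 points for MIPE; data normalized to in-plate controls.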

[6] = qHTS of pediatric cancer cell lines to identify multiple opportunities for drug repurposing: Primary screen for A673 cells (AID 1347092); conditions: A673 Ewing sarcoma viability, CellTiter-Glo ATP luminescence, 48 h; activity change, negative = cytotoxic: at 46 µM (top of the series); also: nearly all actives have a fitted effect of over 45% in size; also: potency is read from the fitted curve at half-maximal effect
Procedure, shortened: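 A673 cells (500-1,000 cells/well) were treated 48 hours at 37 degrees C with compounds at 11-point (0.78 nM to 46 µM) or 8-point (0.59 nM to 46 µM) dilutions. Viability read by CellTiter-Glo luminescence; concentration-response curves fitted.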

[7] = qHTS of pediatric cancer cell lines to identify multiple opportunities for drug repurposing: Primary screen for BT-37 cells (AID 1347094); conditions: BT-37 viability, CellTiter-Glo luminescence, 48 h; series mostly up to 57.3 µM; also: potency is read from the fitted curve at half-maximal effect
Procedure, shortened: (§3)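 Primary screen of approved and investigational compounds on cells in growth media at 37 degrees C, 5% CO2. MIPE set at 11-point and NPC set at 8-point dilutions; viability scored by ATP-based luminescence at 48 hours.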

[8] = qHTS of pediatric cancer cell lines to identify multiple opportunities for drug repurposing: Primary screen for NB1643 cells (AID 1347099); conditions: NB1643 neuroblastoma viability, CellTiter-Glo luminescence, 48 h; series mostly up to 46 µM; also: nearly all actives have a fitted effect of over 50% in size; also: potency is read from the fitted curve at half-maximal effect
Procedure, shortened: as §3

[9] = qHTS of pediatric cancer cell lines to identify multiple opportunities for drug repurposing: Primary screen for Rh18 cells (AID 1347102); conditions: Rh18 rhabdomyosarcoma viability, CellTiter-Glo luminescence, 48 h; series mostly up to 46 µM; also: nearly all actives have a fitted effect of over 65% in size; also: potency is read from the fitted curve at half-maximal effect
Procedure, shortened: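 Cells (500-1,000/well) in growth media were settled 5 h at 37 degrees C, then given compounds for 48 h. Viability was read as CellTiter-Glo luminescence. Primary runs used MIPE at 11 points (0.78 nM-46 µM) and NPC at 8 points (0.59 nM-46 µM); follow-ups used 11 points.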

[10] = test system: UISO; assay: qHTS assay to identify novel small-molecules to repurpose for Merkel cell carcinoma treatment (AID 1296009); conditions: MCC and control cell lines, CellTiter-Glo viability, 72 h; activity change, negative = cytotoxicity: at 46 µM (top of the series); also: nearly all actives have a fitted effect of over 60% in size; also: potency is read from the fitted curve at half-maximal effect
Procedure, shortened: as §2

[11] = qHTS of pediatric cancer cell lines to identify multiple opportunities for drug repurposing: Primary screen for Saos-2 cells (AID 1347097); conditions: Saos-2 viability, CellTiter-Glo ATP luminescence, 48 h; activity change, negative = cytotoxic: at 46 µM (top of the series); also: potency is read from the fitted curve at half-maximal effect; nearly all actives have a fitted effect of over 40% in size
Procedure, shortened: as §3

[12] = target: Cytochrome P450 2C9 (Homo sapiens) (UniProt P11712); assay: Cytochrome P450 family 2 subfamily C member 9 (CYP2C9) small molecule antagonists: luciferase biochemical (cell-free) qHTS assay (AID 1645842; active = well fitted curve in the direction sought with a large enough effect in the repeat runs; inconclusive = weak or mixed curves; inactive = no such curve, though single readings can be large; an effect the other way counts as inactive or inconclusive; also: nearly all actives have a fitted effect of over 55% in size; also: potency is read from the fitted curve at half-maximal effect); conditions: P450-Glo CYP2C9 enzyme assay, luciferin luminescence; series mostly up to 57.4 µM
Sequence of UniProt P11712 (P11712 whole entry, looked up): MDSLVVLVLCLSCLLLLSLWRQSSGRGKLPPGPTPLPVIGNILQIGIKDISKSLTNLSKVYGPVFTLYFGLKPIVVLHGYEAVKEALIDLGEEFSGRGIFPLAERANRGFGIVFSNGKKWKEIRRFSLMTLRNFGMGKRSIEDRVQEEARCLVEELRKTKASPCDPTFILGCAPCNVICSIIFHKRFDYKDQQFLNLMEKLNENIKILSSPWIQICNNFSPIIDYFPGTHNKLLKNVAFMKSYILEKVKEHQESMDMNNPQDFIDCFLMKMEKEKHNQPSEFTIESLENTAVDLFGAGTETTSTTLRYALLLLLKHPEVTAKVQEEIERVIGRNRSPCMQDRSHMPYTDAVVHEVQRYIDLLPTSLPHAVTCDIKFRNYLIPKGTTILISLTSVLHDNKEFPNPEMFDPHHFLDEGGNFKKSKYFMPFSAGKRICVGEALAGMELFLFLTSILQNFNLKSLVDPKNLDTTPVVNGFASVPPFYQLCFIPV
Procedure, shortened: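 P450-Glo CYP2C9 system: proluciferin substrate with enzyme in mix containing 0.4% BSA, 10 min at room temperature, then NADPH regeneration solution added and incubated 1 h at 37C. Detection reagent stopped reaction; luminescence read after 20 min as RLU.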

[13] = test system: WaGa; assay: qHTS assay to identify novel small-molecules to repurpose for Merkel cell carcinoma treatment (AID 1296009); conditions: MCC and control cell lines, CellTiter-Glo viability, 72 h; series mostly up to 46 µM; also: nearly all actives have a fitted effect of over 60% in size; also: potency is read from the fitted curve at half-maximal effect
Procedure, shortened: as §2

[14] = qHTS of pediatric cancer cell lines to identify multiple opportunities for drug repurposing: Primary screen for SJ-GBM2 cells (AID 1347091); conditions: SJ-GBM2 viability, CellTiter-Glo luminescence, 48 h; series mostly up to 46 µM; also: potency is read from the fitted curve at half-maximal effect
Procedure, shortened: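 Eight- or eleven-point concentration series, 48 h treatment at 37 degrees C in growth media; readout CellTiter-Glo luminescence. Potency and efficacy were taken from the concentration-response curves.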

[15] = qHTS of pediatric cancer cell lines to identify multiple opportunities for drug repurposing: Primary screen for SK-N-MC cells (AID 1347093); conditions: SK-N-MC viability, CellTiter-Glo luminescence, 48 h; activity change, negative = cytotoxic: at 46 µM (top of the series); also: potency is read from the fitted curve at half-maximal effect
Procedure, shortened: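 Metabolically active cells were quantified by ATP-dependent luminescence (CellTiter-Glo, 15 min at room temperature) following 48 h treatment. Cells had been plated at 500-1,000 per well and settled for 5 h beforehand.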

[16] = qHTS of pediatric cancer cell lines to identify multiple opportunities for drug repurposing: Primary screen for NB-EBc1 cells (AID 1347095); conditions: NB-EBc1 neuroblastoma viability, CellTiter-Glo luminescence, 48 h; series mostly up to 46 µM; also: potency is read from the fitted curve at half-maximal effect
Procedure, shortened: as §3

[17] = Primary qHTS for small molecule stabilizers of the endoplasmic reticulum resident proteome: Secreted ER Calcium Modulated Protein (SERCaMP) assay (AID 1508630); conditions: SH-SY5Y GLuc-SERCaMP (Gaussia luciferase released on ER calcium loss) secretion, thapsigargin, luminescence; series mostly up to 38.4 µM; also: potency is read from the fitted curve at half-maximal effect
Procedure, shortened: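 The SH-SY5Y reporter protocol was run at 3 concentrations up to 38.3 uM (primary) or 11 concentrations (follow-up): 16 h compound, 100 nM thapsigargin for 4 h, then extracellular luciferase luminescence.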
Tags tell the direction and shape of the fitted curve.

## CC(=O)Nc1c(I)cc(I)c(C(=O)O)c1I
[1]
  Potency: inactive
[2]
  Potency: inactive
[3]
  Potency: inactive
[4]
  Potency: active: 19.5 µM
[5]
  Potency: inactive

## CCCC(=O)O[C@]1(C(=O)CC)CC[C@H]2[C@@H]3CCC4=CC(=O)CC[C@]4(C)[C@H]3[C@@H](O)C[C@@]21C
[6]
  Potency: inconclusive: 33.5 µM [cytotoxic, single point]
[7]
  Potency: inactive
[8]
  Potency: inactive
[1]
  Potency: inactive
[9]
  Potency: inactive
[5]
  Potency: inactive
[10]
  Potency: inactive

## CCCN(CCc1cccs1)[C@H]1CCc2c(O)cccc2C1
[7]
  Potency: inconclusive: 13.8 µM [cytotoxic, partial curve]
[11]
  Potency: inconclusive: 29.9 µM [cytotoxic, single point]
[12]
  Potency: inconclusive: 19.5 µM [inhibitor, partial curve]
[13]
  Potency: inconclusive: 29.9 µM [inhibitor, single point]

## COCCOC(=O)C1=C(C)NC(C)=C(C(=O)OC(C)C)C1c1cccc([N+](=O)[O-])c1 (centres undefined)
[14]
  Potency: inconclusive: 33.5 µM [cytotoxic, single point]
[15]
  Potency: inconclusive: 33.5 µM [cytotoxic, single point]
[7]
  Potency: inconclusive: 30.9 µM [cytotoxic, single point]
[16]
  Potency: inconclusive: 26.6 µM [cytotoxic, single point]
[11]
  Potency: inconclusive: 29.9 µM [cytotoxic, single point]
[1]
  Potency: inconclusive: 27.6 µM [cytotoxic, single point]
[9]
  Potency: active: 18.8 µM
[17]
  Potency: inconclusive: 6.31 µM [inhibitor, partial curve, poor fit] and inconclusive: 28.2 µM [inhibitor, single point]
[3]
  Potency: inconclusive: 35.5 µM [inhibitor, single point]
[5]
  Potency: inconclusive: 21.1 µM [inhibitor, single point]

## NS(=O)(=O)c1ccc(N2N=C(c3ccccc3)CC2c2ccccc2)cc1 (centres undefined)
[4]
  Potency: inconclusive: 23.9 µM [inhibitor, single point]

## Cc1cnc(NC(=O)Nc2cc(Br)c(C)cc2OC[C@@H]2CNCCO2)cn1
[14]
  Potency: active: 1.18 µM
[7]
  Potency: inconclusive: 1.53 µM [cytotoxic, full curve]
[8]
  Potency: inconclusive: 0.59 µM [cytotoxic, full curve, poor fit]
[5]
  Potency: inconclusive: 8.33 µM [inhibitor, partial curve]
[10]
  Potency: inconclusive: 2.35 µM [inhibitor, full curve]

## Nc1nc(OCc2cc(Br)cs2)c2[nH]cnc2n1
[12]
  Potency: inconclusive: 26.8 µM [inhibitor, single point]

## C[C@@H](CN(C)C)CN1c2ccccc2Sc2ccccc21
[6]
  Potency: inconclusive: 33.5 µM [cytotoxic, single point]
[7]
  Potency: inconclusive: 38.9 µM [cytotoxic, single point]
[16]
  Potency: inactive
[11]
  Potency: inconclusive: 29.9 µM [cytotoxic, single point]
[8]
  Potency: inactive
[1]
  Potency: inconclusive: 15.5 µM [cytotoxic, partial curve]
[9]
  Potency: inconclusive: 21.1 µM [cytotoxic, single point]
[17]
  Potency: inconclusive: 28.2 µM [inhibitor, single point]
[3]
  Potency: inconclusive: 17.8 µM [inhibitor, partial curve, poor fit]
[10]
  Potency: inactive

## C/C=C/C(=O)N(CC)c1ccccc1C
[8]
  Potency: inactive
[1]
  Potency: inactive
[2]
  Potency: inactive
[17]
  Potency: inconclusive: 31.6 µM [inhibitor, single point]
[12]
  Potency: inactive
[13]
  Potency: inactive

## CCOC(=O)Cn1cccc1-c1nc(-c2ccc(OC)cc2)c(-c2ccc(OC)cc2)s1
[14]
  Potency: inactive
[6]
  Potency: inactive
[16]
  Potency: inconclusive: 21.1 µM [cytotoxic, single point]
[8]
  Potency: inactive
[3]
  Potency: inconclusive: 2 µM [inhibitor, partial curve, poor fit]
[4]
  Potency: inactive
[12]
  Potency: inconclusive: 3.47 µM [inhibitor, full curve]
[5]
  Potency: inconclusive: 26.6 µM [inhibitor, single point]

## Cc1cccc(N(C)C(=S)Oc2ccc3c(c2)CCC3)c1
[6]
  Potency: inactive
[16]
  Potency: inconclusive: 23.7 µM [cytotoxic, partial curve, poor fit]
[11]
  Potency: inconclusive: 29.9 µM [cytotoxic, single point]
[1]
  Potency: inconclusive: 19.5 µM [cytotoxic, single point]
[12]
  Potency: inconclusive: 15.5 µM [inhibitor, partial curve]
[10]
  Potency: inactive
[13]
  Potency: inconclusive: 13.3 µM [inhibitor, partial curve]

From PubChem BioAssay (NCATS)
